Reference: patent US5932217A, “Peptides which inhibit adhesion between leukocytes and endothelial cells” (priority 1994, dated 1999)
Not every detail of the peptide structures is certain; ends, links or a residue may be inferred. Where no end group is shown, it is not given here.

Key:
[1] = system: human umbilical vein endothelial cells; assay: Transendothelial migration of neutrophils; format: cell-based; details: for % Inhibition of TEM: peptides 0.01 mM
Method: Transendothelial migration of neutrophils was studied based on a method described by Muller et al. (1992), J. Exp. Med. 176: 819-828. Briefly, human neutrophils suspended in ice-cold Hanks balanced salt solution (HBSS) containing Ca^++ and Mg^++ (Sigma) were fluoresceinated by adding 3.3 μl/ml 5-(and 6-)carboxyfluorescein diacetate, succinimidyl ester (CFSE, Molecular Probes Inc., Oreg.). After incubation for 30 mins. on ice, neutrophils were washed twice in cold HBSS with Ca^++ and Mg^++ and resuspended in cold Medium 199 (M199, Sigma) to a final concentration of 10^6 /ml. Human umbilical vein endothelial cells were subcultured at confluence into 96-well tissue culture plates (Becton Dickinson Labware, Lincoln Park, N.J.) that were coated with hydrated collagen gel (Vitrogen; Collagen Corporation, Palo Alto, Calif.) and fibronectin. Endothelial cells were stimulated with 10 ng/ml TNF-alpha for 4 hours and washed three times with warm M199. Neutrophils (10^6 /ml) were preincubated with 0.01 mM of peptides or with 1 μM of native FHA in M199 for 5 mins. on ice before they were added in 100 μl aliquots to the endothelial cells. For positive control, neutrophils were pre-incubated with 25 μg/ml anti-CD18 mAb IB4. For negative control, neutrophils were treated with 25 μg/ml mAb W6/32 against HLA class I antigen (Dako, Carpinteria, Calif.). The cells were incubated for 1 hour at 37° C., 5% CO2. To terminate transmigration, the supernatant fluid was aspirated and the wells were filled with warm 1 mM EGTA (Sigma) in HBSS without Ca and Mg. The plates were covered with plate sealers (Dynatech, Alexandria, Va.) and centrifuged in an inverted position at 250 g for 3 mins. at room temperature. To remove residual non-transmigrated neutrophils from the endothelial cells, monolayers were washed twice with 200 μl of warm Hanks solution without Ca and Mg. Fluorescence was quantitated using a fluorescence counter (Millipore Cytofluor™ 2300). The percentage of transmigrated neutrophils was determined by comparing the amount of fluorescence of test wells with that measured in collagen- and fibronectin-coated wells without endothelial cells. […] Percent inhibition of transendothelial migration of neutrophils was calculated by comparing the number of transmigrated cells in wells containing neutrophils treated with peptide to neutrophils treated with M199 alone and arbitrarily set at 100% transendothelial migration (TEM).
(§1) The procedures for determining the neutrophil adherence to cultured endothelial cells and the transendothelial migration of neutrophils were identical with those of Example 9. Control values were the same as those shown in Example 9.

[2] = system: human umbilical vein endothelial cells; assay: Adherence of neutrophils to cultured activated endothelial cells; format: cell-based
Method: Human umbilical vein endothelial cells (HUVEC, first passage, Clonetics, San Diego, Calif.) were subcultured at confluence into Terasaki tissue culture wells. After 24 hours, confluent monolayers were used for adherence assays. Monolayers were stimulated with 10 ng/ml TNF alpha (Boehringer Mannheim, Indianapolis, Ind.) at 37° C. for four hours. 30 μl of human neutrophils (10^6 /ml) were labeled with fluorescein by the method of Lo et al. (1991), J. Exp. Med. 173 1493-1500, and preincubated for 15 minutes at 37° C. with 20 μl of peptides (0.5 mM in HAP) or HAP (phosphate buffered saline containing 0.5 mg/ml human serum albumin, 3 mM glucose, and 0.3 U/ml aprotinin) as a control buffer. For some experiments, endothelial cells ere pretreated from 10 minutes with Factor X or antibodies against Factor X receptor (EPR-1; Altieri et al. (1990), J. Immunol. 145, 246-253) 12H1 and 9D4 (obtained from Dr. D. Altieri, Scripps Research Institute, LaJolla, Calif.) and then washed. Neutrophils were allowed to adhere to the monolayer for 15 mins. at 37° C. and unbound cells were removed by submersion of the plate in PBS buffer. The number of adherent neutrophils was counted in a 40× microscope field and expressed as a percentage of adherence in control wells with neutrophils treated with HAP buffer alone. The mAb IB4 against CD18 (50 μg/ml; Merck Inc., Rahway, N.J.) served as a positive control.
The ability of FHA peptides and anti-CD18 or anti-Factor X receptor antibodies to interact cooperatively to inhibit neutrophil adherence to endothelial cells was assessed by measuring neutrophil adherence to endothelial cells in the presence of antibody as well as antibody plus peptide. Anti-CD18 mAb IB4 was added to leukocytes at 10 μg/ml 10 min before the assay. Anti-Factor X receptor mAb 12H1 (10 μl of ascites) or 9D4 (10 μg/ml) were added to the endothelial cell monolayers 10 min before the assay. The peptides were added at 5 μg/ml. The results are shown in Table 8 where the numerical values are in % of control binding.
as §1

Substance	% Inhibition of TEM ([1]; native FHA 1 μM, mAbs 25 μg/ml) [%]	neutrophil adherence, % of control binding, antibody none ([2]; peptide 5 μg/ml)	neutrophil adherence, % of control binding, antibody 9D4 ([2]; peptide 5 μg/ml plus 9D4 10 μg/ml)	neutrophil adherence, % of control binding, antibody 12H1 ([2]; peptide 5 μg/ml plus 12H1 10 μl of ascites)	neutrophil adherence, % of control binding, antibody IB4 ([2]; peptide 5 μg/ml plus IB4 10 μg/ml)	additive reduction of neutrophil adherence ([2]; peptide together with anti-CD18 mAb IB4 (50 μg/ml)) [%]	concentration required for inhibition of TEM similar to native FHA at 1 μM (82±1%) [1] [µM]	% Inhibition of TEM ([1]; FHA 1 μM, mAb IB4 25 μg/ml) [%]	% Inhibition of TEM ([1]; FHA 1 μM, mAb IB4 25 μg/ml, listed as FHA peptide Ca) [%]	concentration at which loss of activity (≤20% inhibition) occurred [2] [µM]	maximal inhibition of neutrophil attachment ([2]; FIG. 25B)	inhibition of leukocyte adherence to endothelial cells ([2]; peptides 0.5 mM, mAb IB4 50 μg/ml) [%]
ETKEVDG [FHA II, ETKEVDG]	21 ± 10	40 ± 23 % of control binding	45 ± 9 % of control binding	67 ± 13 % of control binding	11 ± 6 % of control binding	> 80±10	–	–	–	–	–	–
RGDPHQGVLAQGDIIMDAKG [FHA Ca]	–	–	–	–	–	–	10	83 ± 8	83±8	1	~ 50%	47±7
